In the supplement of paper PMC10126150:
Sequences with one replicate were seen in a single cluster, so their values are uncertain.

Test system: ATP
Test: switch fluorescence ratio, 500 uM ATP over buffer (Cy3 cluster intensity, sum of 5 cycles each) (fold (ratio)); higher = stronger signal-on switching upon ATP binding; sequences stand for … in TCGTCGGCAGCGTCAGATGTGTATAAGAGACAGTTTTTTTTTTTTTTTTTTTTTTTTT…TC
Conditions: aptamer strand: ATP DNA aptamer (quencher-CACCTGGGGGAGTATTGCGGAGGAAGG + anchor), 100 nM annealed; ATP concentration: 500 uM; one replicate
Method in brief: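 After annealing to 100 nM quencher-labelled ATP aptamer, Cy3-labelled switching-strand clusters on a modified Illumina MiSeq flow-cell were imaged in selection buffer. A second image followed after 15 min with 500 uM ATP at 22 °C, and five such buffer/ATP cycles were done, each separated by NaOH stripping and re-annealing. The fluorescence ratio, averaged per switch-domain sequence, is summed target-cycle over summed buffer-cycle Cy3 intensity per cluster, with clusters outside 100-1000 RFU excluded.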
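Also: ATP exposure 15 min at 22 °C before imaging.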

Sequence	switch fluorescence ratio
TCATCTAGGC	1.07
AGGAGACGTT	1.02
TTAACTAGAG	1.01
CCAACAGGT	2.13
CCCCGGACGT	1.12
TGGGCATTG	0.991
GTGGAGTCGA	0.969
GCTCGACTAC	1.3
CGTTAAGCGT	1.04
TCAATCGGGG	1.02
AAGTGTCTTT	0.987
CACGGGCAGC	1.08
CGAACAGAC	1.23
GGATTGCCGG	0.972
GTTCGTTCGT	1.01
CTCATTCCGG	1.01
TTGAAGACCC	1.03
GAAGCTAGC	0.956
CGTGTTAGAA	1.19
GTTCTCGGTA	1.03
AAGGAACGGG	1.01
GATTCGATTT	0.995
AAGTTATTTG	1.06
AGTTCCCGGG	1.01
CCCGCCAAGT	1.55
CATTTCTTAA	0.984

Sequence	switch fluorescence ratio
TCCGTGGCGT	1.11
AGACGGGCAT	1.03
ACTACTCGGG	1.05
ATGCATCCTA	0.956
TCGGACTTGT	1.02
GTTAAACGGG	1.06
AAAACTTCGA	0.951
GGATTGCTCC	1.04
TAATGTTGCT	0.998
GGCCGTGCC	0.98
CCTTGCAGTT	1.93
ATCATGATTA	1.02
CAGGAATTGC	1.03
GCAAAGTTTT	0.999
TAGTGAAGGT	1
CAAGTCGCCA	0.994
TTTCTATCAC	1.05
AATCCGTGG	1.05
TCCGTTGAAA	1.11
GCTGCAAATT	1
CACGTTTTTA	0.971
TCGCGGGCCG	0.972
CGGTATCGAG	0.986
GCTGGTGTTC	1.01
TCTGTGCGGA	0.96
CTAAAGATTC	0.984

Sequence	switch fluorescence ratio
CGAGTGCAGG	0.973
CGACTTGCTG	1.05
TCGTCGTTCA	1
TGTGGATGTT	1.03
TCTCAGAAAG	1.02
AATTAAGACA	0.951
AGATATGCCT	0.952
AGACTGCCAG	0.987
TCTCCCCTG	1.38
AGTATCTGTA	0.963
AGGCTTAGCG	0.982
CGGTGCGTGC	0.986
GTCGTATGGA	0.995
TTTATCACGA	0.971
TGGTGGGACC	0.997
TGGAGGTACC	1.03
AGCGAATGCC	1.05
AACTTGGCGA	1.04
AAGGGTGGA	1.05
ACCCGGATAT	1.13
GGTGGGACAT	0.952
TAATGGCCCT	0.952
CTAGGTCCGG	1
TGCGGGGACA	1.02
CCTACGGGGG	1.01
GTCCGAAAGG	1.03

Sequence	switch fluorescence ratio
CACTATTGTA	1
ATGAGCACAC	1.17
TATGGGGACG	0.957
ACTGACTCTG	1.11
ACAAGGAGG	0.996
CCGGTGGCGC	1.02
CACTAGTCGG	0.99
CAGTCTGAAC	1.03
AGACGTTGTC	0.98
GTCTTATGTC	0.979
ATATGCCGCG	0.965
AGAATCCTTA	0.995
CATTTACGTG	1.03
CTGCAAGAAA	1.01
TGGCCGGATT	1.06
TGGTGCCTCG	1.02
TAATCGTAGA	1.05
CTCTTTGTC	1.01
CCTGCATCTT	1.06
AGGGGCATGT	1.01
CGACCAACTC	2.24
AATTCTCGAC	1.03
CAGCTTACGG	1.05
TTCAATTTCA	1.02
GGGCCGTTAG	1.01
GTGTTCTTGT	0.976

Sequence	switch fluorescence ratio
TACGACGACG	1.03
AAGCACAAGG	1.13
AGCAATGAAG	1.28
GCTTGCTTGT	1.03
TCTTGGGTGA	1.03
GGGGCAGCCC	1.01
AATATCAAGA	0.949
ATGGGCTCTC	0.994
CGTATGAGTG	0.975
GTCGTTCGAG	0.993
GTAATCTGGA	1.14
CTGGATCCAA	0.991
GAGATCTGGG	0.949
TGACCTGCAT	1.18
TGGTAGGCC	1.02
TCCGACACAG	1.52
GGCAACTGAG	1.05
TCTGGGCCGC	1.09
TTCTTCTCGC	0.94
TATAGGGGA	1.04
GTATGTACGA	0.999
GCAGAACTAA	0.972
GTCTGTTTT	1.02
ACCCTGAGC	1.05
GTCGTACATA	0.985
AGACCGTGGC	1.02

Sequence	switch fluorescence ratio
TTTCACAGGT	1.16
GGCGTGGTAT	1.5
TTGCGGGCGG	0.989
CACGCCCCTG	1.08
TGTGACGTG	0.951
TGCGTATGTG	0.953
CACGTACTGA	1.56
AGACAAGGTA	1.17
TTTAATATTG	1.04
GCAATAACGT	1.42
ACTATATGGG	1.08
AGAGTTGGCA	1.01
TCCATTACAT	0.973
TTGTGTGTCC	0.99
TTACCTGAGG	1.01
GCCACATGAT	0.98
TAGTCGTGTT	1
ATCACTGACA	1.35
CAAATTTCC	1.1
AGTACGCGAA	1.17
CCTTTAGTTC	1.05
AAGTTTACAC	1.01
AGATCACAGC	1
ATACTAGTTT	0.993
TATGAATTCC	1.09
CCGAAGGGTG	1.2

Sequence	switch fluorescence ratio
TTAAATGGTC	1.05
ACCTAGTACG	1.1
GAACACGCCA	1.33
AGCATCGGGG	1.04
GCCTATTACA	1
TTGTCAATAT	1.16
CATGAGTGTG	1
TTTGCATTCG	1.05
GATGATTGGG	1.01
CTGAAGAACA	1.04
GACATTGAGT	1.03
CAAAGGACG	1.03
TTTTTCCCTA	0.996
TTCCCCTGT	1.02
GAGCGAGCGT	1.01
TTCTACCGAC	1.56
CCATGAAACA	1.01
TCACTATCGG	1.02
CAATGACTTT	1.07
CAATCCGAAC	1.26
GGGGCATCAT	0.999
GCGCCAAAAC	1.18
GCGCCCATAT	1.13
GGGTTAGGCA	1.01
AGTACACGTC	0.993
GAAGGGTGCC	1.01

Sequence	switch fluorescence ratio
CCATCGATGC	1.1
CCAGGATTGT	1
GATGATAACT	0.97
GCCTTAGAA	1.03
GAGCGGTCCC	1
TTCGATGCG	1
CACCCACAT	1.05
CTATTGAGTA	1.02
AGAATTGC	1.07
CCACCCGGCT	0.964
ACGCGCTAGT	0.999
ATATTTGTA	1.01
AAAGACAATC	1.09
CGCCCTCCGG	1.62
AAAGGGACT	1.03
GTTTGTACTT	0.998
CGAAGTTTGA	0.967
GGTTATTTGG	0.983
TATGGTTGTG	0.974
